Source: the supplement of paper PMC4996465

Assays:
[1] = system: KB3-1; experiment: viability (% of DMSO control); higher = more viable cells
Description: (§1)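 Eleven-dose screen of the NCATS MIPE 3 library on cells without co-treatment; CellTiter-Glo after 48 h, as % of DMSO wells.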

[2] = system: Nalm-6; experiment: as above
Description: as §1

Structure (SMILES) | viability ([1]; 0.00078 µM) [%] | viability ([1]; 0.00234 µM) [%] | viability ([1]; 0.00702 µM) [%] | viability ([1]; 0.0211 µM) [%] | viability ([1]; 0.0632 µM) [%] | viability ([1]; 0.19 µM) [%] | viability ([1]; 0.569 µM) [%] | viability ([1]; 1.71 µM) [%] | viability ([1]; 5.12 µM) [%] | viability ([1]; 15.4 µM) [%] | viability ([1]; 46.1 µM) [%] | viability ([2]; run: 1, 0.00078 µM) [%] | viability ([2]; run: 1, 0.00234 µM) [%] | viability ([2]; run: 1, 0.00702 µM) [%] | viability ([2]; run: 1, 0.0211 µM) [%] | viability ([2]; run: 1, 0.0632 µM) [%] | viability ([2]; run: 1, 0.19 µM) [%] | viability ([2]; run: 1, 0.569 µM) [%] | viability ([2]; run: 1, 1.71 µM) [%] | viability ([2]; run: 1, 5.12 µM) [%] | viability ([2]; run: 1, 15.4 µM) [%] | viability ([2]; run: 1, 46.1 µM) [%] | viability ([2]; run: 2, 0.00078 µM) [%] | viability ([2]; run: 2, 0.00234 µM) [%] | viability ([2]; run: 2, 0.00702 µM) [%] | viability ([2]; run: 2, 0.0211 µM) [%] | viability ([2]; run: 2, 0.0632 µM) [%] | viability ([2]; run: 2, 0.19 µM) [%] | viability ([2]; run: 2, 0.569 µM) [%] | viability ([2]; run: 2, 1.71 µM) [%] | viability ([2]; run: 2, 5.12 µM) [%] | viability ([2]; run: 2, 15.4 µM) [%] | viability ([2]; run: 2, 46.1 µM) [%]
CC(C)[C@H](CO)Nc1nc(Nc2ccc(C(=O)O)c(Cl)c2)c2ncn(C(C)C)c2n1 [Purvalanol B] | 100 | 98.8 | 93 | 100 | 101 | 99.1 | 100 | 101 | 96.2 | 105 | 103 | 116 | 112 | 115 | 122 | 115 | 122 | 127 | 122 | 121 | 117 | 121 | 111 | 112 | 117 | 117 | 114 | 116 | 113 | 112 | 108 | 113 | 110
OC1=CC2=C(C(=C1)O)C(=O)\C(=C(/O2)C3=CC(=C(O)C=C3)O)O [Quercetine] | 106 | 107 | 101 | 103 | 109 | 110 | 107 | 109 | 113 | 105 | 37.1 | 98.4 | 118 | 120 | 114 | 111 | 125 | 117 | 127 | 126 | 113 | 58 | 105 | 103 | 109 | 102 | 115 | 113 | 109 | 111 | 106 | 99.9 | 59.7
CNC(=O)c1ccc(N2C(=S)N(c3ccc(C#N)c(C(F)(F)F)c3)C(=O)C23CCC3)cc1F [RD-162] | 101 | 98.9 | 96.7 | 104 | 105 | 100 | 101 | 97.9 | 97.2 | 98 | 78.7 | 23.3 | 71.9 | 64.7 | 74.5 | 82.9 | 96.7 | 111 | 107 | 105 | 104 | 71.7 | 108 | 112 | 111 | 115 | 113 | 114 | 111 | 110 | 115 | 104 | 78.8
O=C(O)[C@H](Cc1c[nH]c2ccccc12)N1C(=O)c2ccccc2C1=O [RG-108] | 99 | 102 | 98.7 | 101 | 112 | 111 | 106 | 114 | 102 | 90.1 | 103 | 101 | 109 | 110 | 106 | 106 | 101 | 110 | 109 | 111 | 109 | 105 | 98.6 | 98.8 | 105 | 105 | 107 | 106 | 108 | 97.3 | 105 | 108 | 98.3
Cc1cc(Nc2cc(NC(=O)c3c(Cl)cccc3Cl)ccn2)nc(N)n1 [RO495] | 94.6 | 94.7 | 101 | 98.1 | 97.7 | 67.1 | 45.6 | 44 | 54.3 | 72.7 | 6.57 | 109 | 108 | 116 | 121 | 113 | 87.2 | 47 | 79.9 | 82.6 | 63.7 | 5.77 | 101 | 109 | 107 | 111 | 118 | 74.5 | 38.5 | 81.6 | 88.4 | 72.8 | 8.86
CC(C)(C)c1cc(C(=O)O)c(NC(=O)Nc2ccc3[nH]ncc3c2)s1 [S6K-18] | 97.3 | 100 | 99.8 | 97.3 | 103 | 94.7 | 100 | 99.5 | 97.9 | 100 | 104 | 115 | 121 | 119 | 115 | 115 | 117 | 118 | 115 | 108 | 108 | 119 | 108 | 111 | 111 | 111 | 109 | 103 | 104 | 111 | 109 | 107 | 103
Fc1ccc(Cl)cc1-c1nc(Nc2ccncc2)c2nccnc2n1 [SD-208] | 105 | 102 | 106 | 102 | 107 | 109 | 115 | 108 | 110 | 106 | 105 | 103 | 95.9 | 95 | 110 | 105 | 119 | 120 | 105 | 107 | 94.8 | 82.3 | 106 | 103 | 105 | 108 | 106 | 117 | 107 | 113 | 113 | 104 | 92.3
Cn1cc(-c2ccc3nnc(Sc4ccc5ncccc5c4)n3n2)cn1 [SGX-523] | 96.3 | 103 | 96.2 | 102 | 99.4 | 97.9 | 96.8 | 102 | 101 | 104 | 101 | 93.7 | 98.7 | 99.6 | 102 | 105 | 108 | 106 | 113 | 112 | 110 | 98.1 | 97.7 | 97.7 | 98.9 | 100 | 103 | 101 | 98.6 | 105 | 108 | 110 | 108

Viability of KB3-1 and Nalm-6 cells after 48 h of drug alone (CellTiter-Glo), 11 doses over about 4.5 log units. % of DMSO wells, lower = more cell loss; AC50 from the fitted curve, lower = more potent. No active / inactive call. Nalm-6 was screened in two runs. AC50 is listed only for well-fitted inhibitory curves. KB3-1 is a HeLa-derived carcinoma line, Nalm-6 a B-cell precursor leukaemia line.
